Consider 24 compounds from the supplement of paper PMC10037445.

Each structure is given as a SMILES string. Several values for one entry are separate records, joined by “and”; a condition that tells them apart may be missing. Equal values may be shown once. In all, about 2,900 compounds were measured (“NF-kB SEAP reporter activity, fold change vs agonist alone”: median about 0.99, highest 2% from about 2.6 on). The list shows a part of the results.

Assay [1] deals with RAW-Dual. Nature of the assay: NF-kB SEAP reporter activity, fold change vs agonist alone; cytotoxicity flag (confluency mask): not cytotoxic; higher = enhanced NF-kB activity. Put shortly: (§1)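 RAW-Dual macrophages were seeded in DMEM at 50,000 cells/well in 384-well plates, given 50 nL of library stock by pin tool, and given a PRR agonist 1 h later. Plates were held at 37 °C, 5% CO2 for 20 hours, after which supernatant was read for IRF by QuantiLuc luminescence and for NF-κB by QuantiBlue absorbance at 620 nm. Reporter activity is expressed as fold change over wells that received agonist alone. A well was called cytotoxic when IncuCyte confluency fell below 70% of agonist controls in both mask sets.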

For assay [2], the system named is RAW-Dual. Nature of the assay: NF-kB SEAP reporter activity, fold change vs agonist alone; higher = enhanced NF-kB activity. Put shortly:
as §1

The mark [3] stands for this setting: agonist: ODN 1826 (TLR9) 0.5 ug/mL.
[4] abbreviates: agonist: Pam2CSK4 (TLR2/6) 0.1 ug/mL.
The mark [5] stands for this setting: agonist: Pam3CSK4 (TLR2/1) 0.1 ug/mL.
Where [6] appears, read: library stock concentration (final ~1000-fold dilution): 10 mM, cytotoxicity flag (confluency mask): not cytotoxic, agonist: Imiquimod (TLR7) […].
[7] abbreviates: library stock concentration (final ~1000-fold dilution): 10 mM, cytotoxicity flag (confluency mask): not cytotoxic, agonist: MPLA (TLR4) […].

`CCCC(=O)OCOC(=O)C1=C(C)NC(C)=C(C(=O)OC)C1c1cccc(Cl)c1Cl` (stereo unspecified) (library stock concentration (final ~1000-fold dilution): 10 mM): the “NF-kB SEAP reporter activity” value in the assay on RAW-Dual [1] (agonist: LPS (TLR4) 0.1 ug/mL) was 0.954; in the assay on RAW-Dual [1] (setting [3]) it was 1.19; with RAW-Dual [1] (setting [4]) it was 0.911; in the assay on RAW-Dual [1] (setting [5]), 1.1.
In the case of `CCCC(=O)OCOC(=O)C1=C(C)NC(C)=C(C(=O)OC)C1c1cccc(Cl)c1Cl` (stereo unspecified), the “NF-kB SEAP reporter activity” value with RAW-Dual [2] (setting [6]) stood at 1.02; in the assay on RAW-Dual [2] (setting [7]), 0.958.
The matching figures for `CN1CCN(c2ccc(OC(F)(F)F)c(Nc3ncc4c(n3)-c3c(c(C(N)=O)nn3CCO)CC4)c2)CC1`: 0.865 and 0.831.
Regarding `CN1CCN(c2ccc(OC(F)(F)F)c(Nc3ncc4c(n3)-c3c(c(C(N)=O)nn3CCO)CC4)c2)CC1` (library stock concentration (final ~1000-fold dilution): 10 mM), the “NF-kB SEAP reporter activity” value in the assay with RAW-Dual [1] (agonist: LPS (TLR4) 0.1 ug/mL) stood at 0.453; in the assay with RAW-Dual [1] (setting [3]) it was 0.703; in the assay with RAW-Dual [1] (setting [4]) it was 0.551; with RAW-Dual [1] (setting [5]), 0.737.
As for `CN(C/C=C/C#CC(C)(C)C)Cc1cccc2ccccc12` (library stock concentration (final ~1000-fold dilution): 10 mM), the “NF-kB SEAP reporter activity” value in the assay on RAW-Dual [1] (agonist: LPS (TLR4) 0.1 ug/mL) stood at 4.26; with RAW-Dual [1] (setting [3]) it was 0.849; with RAW-Dual [1] (setting [4]), 0.95; in the assay with RAW-Dual [1] (setting [5]), 1.44.
With `CN(C/C=C/C#CC(C)(C)C)Cc1cccc2ccccc12`, the “NF-kB SEAP reporter activity” value worked out at 1.6 with RAW-Dual [2] (setting [6]) and 2.02 with RAW-Dual [2] (setting [7]).
For `O=C1NC(=O)/C(=C/c2cccc(C(F)(F)F)c2)S1`, in that order: 0.601 and 0.661.
Turning to `O=C1NC(=O)/C(=C/c2cccc(C(F)(F)F)c2)S1` (library stock concentration (final ~1000-fold dilution): 10 mM), the “NF-kB SEAP reporter activity” value with RAW-Dual [1] (agonist: LPS (TLR4) 0.1 ug/mL) was determined as 0.461; in the assay with RAW-Dual [1] (setting [3]) it was 0.505; in the assay on RAW-Dual [1] (setting [4]), 0.442; in the assay with RAW-Dual [1] (setting [5]) it was 0.222.
Turning to `CC#Cc1cncc(-c2ccc3c(c2)C2(N=C(C)C(N)=N2)C2(CCC(OC)CC2)C3)c1` (stereo unspecified), the “NF-kB SEAP reporter activity” value came to 1.18 in the assay with RAW-Dual [2] (setting [6]) and 1.01 in the assay on RAW-Dual [2] (setting [7]).
On to `CC#Cc1cncc(-c2ccc3c(c2)C2(N=C(C)C(N)=N2)C2(CCC(OC)CC2)C3)c1` (stereo unspecified) (library stock concentration (final ~1000-fold dilution): 10 mM), for which the “NF-kB SEAP reporter activity” value stood at 1.15 in the assay on RAW-Dual [1] (agonist: LPS (TLR4) 0.1 ug/mL), 0.723 in the assay on RAW-Dual [1] (setting [3]), 0.809 in the assay on RAW-Dual [1] (setting [4]) and 0.972 with RAW-Dual [1] (setting [5]).
For the compound `Cn1cc(-c2ccc3nnc(Sc4ccc5ncccc5c4)n3n2)cn1`, the “NF-kB SEAP reporter activity” value is 1 with RAW-Dual [2] (library stock concentration (final ~1000-fold dilution): 2 mM, cytotoxicity flag (confluency mask): not cytotoxic, agonist: Imiquimod (TLR7) […]) and 1 in the assay with RAW-Dual [2] (library stock concentration (final ~1000-fold dilution): 2 mM, cytotoxicity flag (confluency mask): not cytotoxic, agonist: MPLA (TLR4) […]).
For the compound `Cn1cc(-c2ccc3nnc(Sc4ccc5ncccc5c4)n3n2)cn1` (library stock concentration (final ~1000-fold dilution): 2 mM), the “NF-kB SEAP reporter activity” value came to 1.33 in the assay on RAW-Dual [1] (agonist: LPS (TLR4) 0.1 ug/mL), 1.02 in the assay on RAW-Dual [1] (setting [3]), 1.16 in the assay with RAW-Dual [1] (setting [4]) and 1.11 in the assay on RAW-Dual [1] (setting [5]).
For `CC1(C)CCC2(C(=O)O)CCC3(CO)C(=CCC4C5(C)CC(O)C(OC6OC(CO)C(O)C(O)C6O)C(C)(C(=O)O)C5CCC43C)C2C1` (stereo unspecified), the “NF-kB SEAP reporter activity” value in the assay with RAW-Dual [2] (setting [6]) is 0.922; in the assay with RAW-Dual [2] (setting [7]), 1.01.
Take `CC1(C)CCC2(C(=O)O)CCC3(CO)C(=CCC4C5(C)CC(O)C(OC6OC(CO)C(O)C(O)C6O)C(C)(C(=O)O)C5CCC43C)C2C1` (stereo unspecified) (library stock concentration (final ~1000-fold dilution): 10 mM): the “NF-kB SEAP reporter activity” value in the assay on RAW-Dual [1] (agonist: LPS (TLR4) 0.1 ug/mL) amounted to 1.15; in the assay with RAW-Dual [1] (setting [3]), 0.882; with RAW-Dual [1] (setting [4]), 1.06; with RAW-Dual [1] (setting [5]) it was 1.1.
As for `CN1CCN(C2CCN(C(=O)Nc3cc(Oc4ccc(NC(=O)C5(C(=O)Nc6ccc(F)cc6)CC5)c(F)c4)ccn3)CC2)CC1`, the “NF-kB SEAP reporter activity” value in the assay with RAW-Dual [2] (library stock concentration (final ~1000-fold dilution): 10 mM, cytotoxicity flag (confluency mask): cytotoxic (confluency <70% of control), agonist: Imiquimod (TLR7) […]) stood at 2.76.
Regarding `CC(C)(C)Cn1c(N)nc2ccc(-c3[nH]c(C(C)(C)C)nc3-c3ccc(F)cc3)nc21.CS(=O)(=O)O.CS(=O)(=O)O` (library stock concentration (final ~1000-fold dilution): 10 mM water), the “NF-kB SEAP reporter activity” value in the assay with RAW-Dual [1] (agonist: LPS (TLR4) 0.1 ug/mL) was 1.03; with RAW-Dual [1] (setting [3]) it was 0.512; with RAW-Dual [1] (setting [4]), 0.242; with RAW-Dual [1] (setting [5]) it was 0.506.
`CC(C)(C)Cn1c(N)nc2ccc(-c3[nH]c(C(C)(C)C)nc3-c3ccc(F)cc3)nc21.CS(=O)(=O)O.CS(=O)(=O)O`: the “NF-kB SEAP reporter activity” value amounted to 0.303 with RAW-Dual [2] (library stock concentration (final ~1000-fold dilution): 10 mM water, cytotoxicity flag (confluency mask): not cytotoxic, agonist: Imiquimod (TLR7) […]) and 0.892 in the assay on RAW-Dual [2] (library stock concentration (final ~1000-fold dilution): 10 mM water, cytotoxicity flag (confluency mask): not cytotoxic, agonist: MPLA (TLR4) […]).
For `O=C(O)CSCC(=O)NC1CCSC1=O` (stereo unspecified), the “NF-kB SEAP reporter activity” value with RAW-Dual [2] (setting [6]) amounted to 0.922; in the assay with RAW-Dual [2] (setting [7]), 1.04.
For `O=C(O)CSCC(=O)NC1CCSC1=O` (stereo unspecified) (library stock concentration (final ~1000-fold dilution): 10 mM), the “NF-kB SEAP reporter activity” value with RAW-Dual [1] (agonist: LPS (TLR4) 0.1 ug/mL) was determined as 1.33; with RAW-Dual [1] (setting [3]) it was 1.08; in the assay on RAW-Dual [1] (setting [4]) it was 1.12; in the assay on RAW-Dual [1] (setting [5]) it was 0.974.
Turning to `COc1ccccc1C(=O)Nc1cc2c(cc1N1CCNCC1C)n(C)c(=O)n2C` (stereo unspecified), the “NF-kB SEAP reporter activity” value in the assay with RAW-Dual [2] (setting [6]) was 1.01; in the assay on RAW-Dual [2] (setting [7]), 1.37.
Take `COc1ccccc1C(=O)Nc1cc2c(cc1N1CCNCC1C)n(C)c(=O)n2C` (stereo unspecified) (library stock concentration (final ~1000-fold dilution): 10 mM): the “NF-kB SEAP reporter activity” value with RAW-Dual [1] (agonist: LPS (TLR4) 0.1 ug/mL) amounted to 1.48; with RAW-Dual [1] (setting [3]) it was 0.383; in the assay with RAW-Dual [1] (setting [4]) it was 0.997; in the assay with RAW-Dual [1] (setting [5]), 0.973.
As for `COc1ccc2nc([S+]([O-])Cc3ncc(C)c(OC)c3C)[nH]c2c1` (stereo unspecified) (library stock concentration (final ~1000-fold dilution): 10 mM), the “NF-kB SEAP reporter activity” value in the assay with RAW-Dual [1] (agonist: LPS (TLR4) 0.1 ug/mL) was 0.958 and 1.17; in the assay on RAW-Dual [1] (setting [3]), 0.94 and 1.03; in the assay on RAW-Dual [1] (setting [4]), 0.986 and 1.08; in the assay with RAW-Dual [1] (setting [5]), 0.965 and 0.978.
Take `CCCCCCCCCCCCCCCC(=O)OC1C(SC)OC(C(NC(=O)C2CC(CCC)CN2C)C(C)Cl)C(O)C1O.Cl` (stereo unspecified): the “NF-kB SEAP reporter activity” value stood at 1.2 in the assay with RAW-Dual [2] (setting [6]) and 0.983 with RAW-Dual [2] (setting [7]).
`CCCCCCCCCCCCCCCC(=O)OC1C(SC)OC(C(NC(=O)C2CC(CCC)CN2C)C(C)Cl)C(O)C1O.Cl` (stereo unspecified) (library stock concentration (final ~1000-fold dilution): 10 mM): the “NF-kB SEAP reporter activity” value in the assay with RAW-Dual [1] (agonist: LPS (TLR4) 0.1 ug/mL) was 0.968; in the assay on RAW-Dual [1] (setting [3]), 1.08; with RAW-Dual [1] (setting [4]), 0.877; with RAW-Dual [1] (setting [5]), 0.713.
